Read counts are not given, so values of variants with three or more changes are uncertain.

56 variants from the RNAGym collection of RNA variant scans (doi:10.7554/elife.90254) can be followed below.

To fix the notation:
B1: LINE1-mini (parent)
chain: GGCAGAGCUCAACACAGCGUGGCAAAGUGGCUGUGGCUAGACUGCC

In the series the parent is B1. Kind of series: self-cleavage, relative activity (ratio to wild type); higher = more cleavage; in vitro, sequencing; the parent is a self-cleaving ribozyme.
Turning to GACAGAGCUAAACACAGCGUGGCGAAGUGGCUGUGGCUAGACUUCG [G2A C10A A24G G44U C46G], the self-cleavage was determined as 0.02.

GACGUAGCUCAACACAGCGUGGCGAAGUGGCUGUGGCUAGACUGCC [G2A A4G G5U A24G]: the self-cleavage is 0.75.

On to GACAGAGCUCAGCACAGCGUGGCAAAUUGGCUCUGGCUAGAUUUCC [G2A A12G G27U G33C C42U G44U], for which the self-cleavage came to 0.08.

With GACGGAGCUCAACACAGCGUGACAAAGUGGCUGGGGCUAGACUGCC [G2A A4G G22A U34G], the self-cleavage is 0.19.

Regarding GAAAGAGGUAAACACAGCGUGGCAAAGUGGCAGUGGCUAGACUGCC [G2A C3A C8G C10A U32A], the self-cleavage is 0.07.

Regarding GACAGAGAUCAACACAGCGUGGCACAGUGGCUGUGGCUAGACUGCC [G2A C8A A25C], the self-cleavage was found to be 0.53.

On to GAAAGAGCUUAACACAGCGUGGCAAAGUGGCUGUGGCUAGACUCCC [G2A C3A C10U G44C], for which the self-cleavage was 0.18.

As to GACAGAGCUCAACUCAGCGAGGCAAAGUGGCUGUGGCUAGACAGCC [G2A A14U U20A U43A], the self-cleavage is 0.13.

For the variant GACAGUGCUCAACACAGCGUGGCAAAGUGGCUGUGGUAAGACUGCC [G2A A6U C37U U38A], the self-cleavage came to 0.4.

For GACAGAGCUCAACCUCGCGUGGCAAAGUGGCUGUGGCUAGACUGCA [G2A A14C C15U A16C C46A], the self-cleavage amounted to 0.27.

As to GACAGAGAUCAACACAGCGUAGCAAAGUGGCUGUGGCUAGACUGAC [G2A C8A G21A C45A], the self-cleavage was found to be 0.42.

With GACAGAGAUCAGCACAGCGUGGCAAAGUGGCUGUGGCUAGACUGCC [G2A C8A A12G], the self-cleavage worked out at 0.05.

As to GACAGAGAUCAACACUGCGUGGCCAUGUGGCUGUGGCUAGACUACC [G2A C8A A16U A24C A26U G44A], the self-cleavage came to 0.27.

As for GACAGAGCUCAACGGAGCGUGGCAAAGUGGCUGUACAUAGACUGCC [G2A A14G C15G G35A G36C C37A], the self-cleavage amounted to 0.03.

Take GAGAGAGCUCAACACAGAGUGGCAAAGUGGCUGUGGCUAGCCUGCC [G2A C3G C18A A41C]: the self-cleavage is 0.27.

On to GACAGUGCUCAACACAGCGUGGGGAAGUGGCUGUAGCUAGACUGCA [G2A A6U C23G A24G G35A C46A], for which the self-cleavage came to 0.02.

Regarding GAUAGAGCUCAACACAGCGUGGCAAAGAGGCUGUGGCUAGACUGCC [G2A C3U U28A], the self-cleavage was 1.62.

Turning to GACAGGACUCAACACAGCGUGGCGAAGUGGCUGUGGCUACACUGAC [G2A A6G G7A A24G G40C C45A], the self-cleavage is 0.25.

As for GACAGAGGUCAACACAGCGUGGCAAAGUGGCUGUGGCUAGGCUCCC [G2A C8G A41G G44C], the self-cleavage is 0.27.

For GACGGAGCUCAACACAGCGUCACAAAAUGGCUGUGGCUAGACUGCC [G2A A4G G21C G22A G27A], the self-cleavage was found to be 0.24.

GACAGAGCUCGACACAGCGUGGCAAAGUGGCUGUGGCUAGAAUGCA [G2A A11G C42A C46A]: the self-cleavage was found to be 0.04.

GACAGAGCUCAACACCGCCUGGCAAAGUCGCUGUGGCUAGACUGCC [G2A A16C G19C G29C]: the self-cleavage stood at 0.07.

With GAGAGAGCUCAACACAGCGUUGCAAAGGGGCUGUGGCUAGACUGCC [G2A C3G G21U U28G], the self-cleavage came to 0.24.

Take GACAGAGCUCAACGCAGCGUGACAAAGUGGCUGUAGUUAGACUGCC [G2A A14G G22A G35A C37U]: the self-cleavage stood at 0.13.

With GACUGAGCUCAACACAGCGUUGCAAAGUGGCUGUGGCUAGACUGCC [G2A A4U G21U], the self-cleavage amounted to 0.4.

Consider GACUGAGCUCAACACAGCGUGGCAAAGUGGGUGUGGCUAGACUGCC [G2A A4U C31G], for which the self-cleavage was 0.04.

With GACAGUAGUCAACACAGCGUGGCAAAGUGGCUGUGGCUAGACUAGC [G2A A6U G7A C8G G44A C45G], the self-cleavage was 0.06.

Regarding GACAGAGCUCGACACAGCGUGGCAAACUGGCUGUGGCUAGACUGCC [G2A A11G G27C], the self-cleavage is 0.04.

Regarding GACAGAGCUCAACCCAGCGUGGCAAAGUGGCUGUGGCGACACUACC [G2A A14C U38G G40C G44A], the self-cleavage is 0.09.

Turning to GACAGAGCUCGACACAGCGUGUCAAAGCGGCUGUGGGUAGACUGCU [G2A A11G G22U U28C C37G C46U], the self-cleavage is 0.

As to GACAGAGCUCAACACAGCGUGGCACAGAGGCUGUGUCUAGAAUGCC [G2A A25C U28A G36U C42A], the self-cleavage was 0.12.

As for GACAGAGCUCAACCUAGCGUGGCAAAGUGGCUGUGUCUAGACUGCC [G2A A14C C15U G36U], the self-cleavage was 0.03.

Turning to GACAGAGCUAGACACAAUGUGGCAAAGUCGCUGUGGCUCGACUGCC [G2A C10A A11G G17A C18U G29C A39C], the self-cleavage was determined as 0.01.

For GACAGAGCUCAACACAGCGUGGCCAAGUGGUUGUGGCUAGACUGCC [G2A A24C C31U], the self-cleavage came to 0.19.

GACAGAGCUCAACUCAGCGUGGCAAAGUGCCUGUCGCUAGACUGAC [G2A A14U G30C G35C C45A]: the self-cleavage was determined as 0.43.

Regarding GAUAGAGCUCAACACAUCGUGGCACAGUGGCUCUGGCUAGACUUCC [G2A C3U G17U A25C G33C G44U], the self-cleavage turned out to be 0.23.

On to GACAGAGCUCUACACAGCGUGGCAAAGUGGCUGUGGCUAUACUGCC [G2A A11U G40U], for which the self-cleavage turned out to be 0.03.

For the variant GACAGAGCUCUACACAGCGUGGCAAAGUGGCUGUGGCUAAACUGCC [G2A A11U G40A], the self-cleavage is 0.03.

In the case of GAUAGACCUCAUCACAGCUUGGCAAAGUGGCUGUGGCUAGACUGCC [G2A C3U G7C A12U G19U], the self-cleavage turned out to be 0.32.

For the variant GACAGGGCUCAACUCAGCGUGGCAAAGUGGCUGUGGCUAGACUGCA [G2A A6G A14U C46A], the self-cleavage came to 0.01.

Turning to GAGAGAGCUCAACACAGAGUGGCACAGUGGCUGUGGCGAGACUGCC [G2A C3G C18A A25C U38G], the self-cleavage was 0.1.

Turning to GACAGUGCUCAACACAGCGUUGCAAGGUGGCCGUGGCUAGACUGCC [G2A A6U G21U A26G U32C], the self-cleavage worked out at 0.17.

With GAAAGAGCUCAACACAGCGUGGCAAAUUGGCUGUGGCUAGACUGCC [G2A C3A G27U], the self-cleavage was 1.8.

Regarding GAAAGAGCUCAACACAGCGUGGUAAGGUGGCUGUGGCUAGACUGCU [G2A C3A C23U A26G C46U], the self-cleavage stood at 0.53.

Regarding GACAGAGCUCAACGCAGCGUGGUAAAGUGGCUGUGGCUAGACUGCC [G2A A14G C23U], the self-cleavage worked out at 0.71.

With GACAGAGCUCAACGCAGCGUGGUAAAGGGGCUGUGGCUAGACUGCC [G2A A14G C23U U28G], the self-cleavage was 0.68.

Regarding GACAGAGCUCGACACAGCGUGGAAAAGUGGCUGUGGCUACACUGGC [G2A A11G C23A G40C C45G], the self-cleavage amounted to 0.01.

Regarding GACAGAGCUCAGCACAGCGUGGCAAAGUGGCAGCGGCUAGACUGCA [G2A A12G U32A U34C C46A], the self-cleavage came to 0.03.

For the variant GACAGAGCUCAACACAGCGUGGCUAAUUGGCUGUGACUAGACUUAC [G2A A24U G27U G36A G44U C45A], the self-cleavage is 0.01.

Regarding GACAGAGCUCAACACCGCGUGGCAAAGUGGCUGAGGCUACACUGCC [G2A A16C U34A G40C], the self-cleavage was determined as 0.26.

In the case of GACAGAGCUCAGCACAGCGUGGCAAAGUUGCUGUGGCAAAACUGCC [G2A A12G G29U U38A G40A], the self-cleavage was 0.03.

In the case of GACAGCGCUCAACACCGCGUGGCAAGGUGACUGUGGCUAGACUGCC [G2A A6C A16C A26G G30A], the self-cleavage came out at 0.38.

On to GACAGAGGUCAACACAGCGUGGUAAAGUGGCUGUGGCUAAACUGCC [G2A C8G C23U G40A], for which the self-cleavage was determined as 0.2.

As for GACAGAGCUCACCACAGCGUUGCAAAGUGGCUGUGGCUAGACUGCC [G2A A12C G21U], the self-cleavage came out at 0.04.

GAUAGAGCUCAACACAGCGUGGCAAAGUGGCUAUGGCUAGACUGCC [G2A C3U G33A]: the self-cleavage was 0.24.

For GAAAGAGCUCACCUCAGCGUGGCAAAGUGGCUGUGGCUAGACUGCC [G2A C3A A12C A14U], the self-cleavage was 0.13.
